Assay results: PubChem BioAssay AID445 (National Center for Advancing Translational Sciences (NCATS), 2006)
About 40 (0.04%) of roughly 110,000 compounds were called active. Inconclusive means that the source gave no clear call. Such entries were picked first, then a sample of the others. Calls come from the whole dose curve; as a rule, active = well fitted curve in the direction sought with a large enough effect in the signal ratio (not every such curve was filed as active); inconclusive = small, poorly fitted or top-dose-only effect, or a change in a side signal; inactive = flat fitted curve, though single readings scatter; the % refers to the signal ratio. Where the call is inconclusive, the potency comes from a doubtful curve fit.

Test: IkB Signaling;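 for IkBa stabilization activation: 0% = basal untreated cells and 100% = reference inhibitor full response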
Conditions: ABC-DLBCL IkBa-CBG/CBR dual luciferase ratio (green luciferase fused to IkBa over red control in OCI-Ly3 lymphoma cells), 4 h; IkBa stabilization activation: at 57.1 µM (top of the series), scaled: untreated 0%, proteasome inhibitor 100% unless noted
Summary of the method: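 Luminescence ratio of IκBα-fused green versus native red beetle luciferase in OCI-Ly3 cells, 4 h post-doxycycline with compound; red signal alone, scaled from basal (0%) to zero light (-100%), flagged nonspecific or cytotoxic effects.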
Potency is the fitted concentration of half-maximal effect.

SMILES | Potency | IkBa stabilization activation
Cc1ccc(C(Nc2ccccn2)c2ccc3cccnc3c2O)cc1 (centres undefined) | inconclusive: 3.98 µM [signal inhibitor, full curve] | 
CC(=O)N1CCC(N(C(=O)Nc2ccc(C)c(F)c2)C(C)C)CC1 |  | inactive
C[C@@]12CCC(=O)C=C1CC[C@H]1[C@H]3CC[C@](O)(C(=O)CO)[C@]3(C)CC[C@@H]12 | inconclusive: 2 µM [rising, full curve] | 
COc1cc(Cl)c(C)cc1NC(=O)CCc1c(C)nc2cc(-c3cccc(F)c3)nn2c1C |  | inconclusive: 18.6% [signal inhibitor]
CCc1c(C)sc2c1CCN(C(=O)Nc1ccccc1C(F)(F)F)C2c1ccccc1 (centres undefined) |  | inconclusive: 1.05% [signal inhibitor]
O=C(CCn1cnc2onc(-c3ccc(F)cc3)c2c1=O)N1CCN(c2ccc(F)cc2)CC1 |  | inconclusive: -2.63% [signal inhibitor]
COc1ccc(C(=O)COC(=O)CCN=C2NS(=O)(=O)c3ccccc32)cc1OC |  | inactive
CCn1c(C(=O)N2CCCC(C(=O)NCCCOC)C2)cc2sccc21 (centres undefined) |  | inactive
CCOC(=O)CCCNC(=O)CCNC(=O)c1ccc(OC)cc1 |  | inactive
COc1ccc(N2CCN(C(CNC(=O)CC(C)C)c3ccc4c(c3)OCO4)CC2)cc1 (centres undefined) |  | inactive
O=C(c1ccc(-c2ccccc2)cc1)N1CCN(Cc2ccccn2)CC1 |  | inconclusive: 2.83% [signal inhibitor]
CCc1cccc(CC)c1NC(=O)Cn1nnc2sc(-c3ccccc3)cc2c1=O |  | inconclusive: 1.55% [signal inhibitor]
Cc1ccc(-c2nc3ccc(Cl)cn3c2Nc2ccc3c(c2)OCCO3)o1 |  | inconclusive: 1.32% [signal inhibitor]
CCCCOc1ccc(C2=NC(c3ccncc3)=Nc3ccc(Br)cc3N2)cc1 |  | inactive
CCN(CC)c1ccc(-c2nn3c(-c4n[nH]c5c4CCC5)nnc3s2)cc1 |  | inconclusive: 7.14% [signal inhibitor]
O=C(CSc1nnc(Cc2cccs2)n1C1CCCCC1)N1CCN(C(=O)c2ccco2)CC1 |  | inconclusive: 5.01% [signal inhibitor]
Oc1cc2c(cc1O)CN(C(=S)NCCc1ccc(Cl)cc1)CCC2 |  | inconclusive: 0.976% [signal inhibitor]
CCCCCn1c(=O)[nH]c2cc(C(=O)N3CCN(c4ccccc4)CC3)ccc2c1=O |  | inconclusive: -0.819% [signal inhibitor]
Cc1cc(N2CCN(C)CC2)nc2ccc(NC(=O)Nc3ccccc3Cl)cc12 |  | inconclusive: 3.02% [signal inhibitor]
CCN(c1ncnc2c1c(-c1ccccc1)cn2-c1ccccc1)C1CCCCC1 |  | inconclusive: 0.503% [signal inhibitor]
CCOC(=O)Nc1ccc2c(c1)N(C(=O)N(C)C)c1ccccc1CC2 |  | inactive
O=C(NC1CCCCC1)c1cc2nc3c(c(C(F)(F)F)n2n1)CCCC3 |  | inactive

SMILES | Potency | IkBa stabilization activation
Cc1cccc(N2CCN(C(=O)c3cn(C)c(=O)c4c3c3ccccc3n4C)CC2)c1C |  | inconclusive: -1.88% [signal inhibitor]
CCNc1c(NC(=O)c2ccccc2OCC)c(=O)oc2ccccc12 |  | inconclusive: 15.9% [signal inhibitor]
CCOC(=O)C1=C(CNCc2ccccc2)NC(=O)NC1c1ccc(C)cc1 (centres undefined) |  | inconclusive: 0.888% [signal inhibitor]
Cc1ccc(N2C(=O)[C@@H]3CSC(c4ccc(C(F)(F)F)cc4)N3C2=O)cc1 (some centres undefined) |  | inactive
Cc1cccn2c(=O)c3cc(C#N)c(=O)n(-c4c(C)n(C)n(-c5ccccc5)c4=O)c3nc12 |  | inactive
COc1ccc(-n2c(=O)c3c(C)c(C)sc3n(Cc3ccc(F)cc3)c2=O)c(OC)c1 |  | inconclusive: -3.08% [signal inhibitor]
Cc1ccc(S(=O)(=O)N2CCCc3cc(NC(=O)c4ccc(C(F)(F)F)cc4)ccc32)cc1 |  | inconclusive: 3.05% [signal inhibitor]
COc1ccc(N(CC(=O)Nc2cccc(OC)c2)S(=O)(=O)c2c(C)nn(C)c2C)cc1 |  | inactive
COc1ccc(-c2noc(CSc3nnc(-c4ccncc4)n3-c3cccc(C)c3)n2)cc1OC |  | inconclusive: 0.262% [signal inhibitor]
CCOC(=O)c1sc2nc(N3CCOCC3)c3c(c2c1N)CCN(C)C3 |  | inactive
O=C(c1cc2ccccc2o1)c1nc2c(n1O)CCCCC2 | inconclusive: 3.16 µM [signal inhibitor, full curve] | 
C[Si](C)(c1ccc(C(=O)O)cc1)c1ccc(C(=O)O)cc1 |  | inactive: 0.166% [at 11.4 µM, scaled: untreated 0%, proteasome inhibitor 100%]
COc1ccc(CCC(=O)NCCc2csc(-c3cccc(F)c3)n2)cc1 |  | inconclusive: 2.6% [signal inhibitor]
COc1ccc(NC(=O)c2oc3ccc4c(c3c2C)C(=O)CC(C)(C)O4)cc1OC |  | inconclusive: -3.19% [signal inhibitor]
CCc1ccc(OCC2c3cc(OC)c(OC)cc3CCN2C(=O)Cc2ccc(OC)c(OC)c2)cc1 (centres undefined) |  | inconclusive: 2.05% [signal inhibitor]
COc1cc2c(cc1NC(=O)C(C)Oc1ccc(Cl)cc1Cl)oc1ccccc12 (centres undefined) |  | inconclusive: -2.47% [signal inhibitor]
Cc1ccc(CCNC(=O)CCCn2nc(C)c3c(C)n(-c4ccc(C)cc4)nc3c2=O)cc1 |  | inconclusive: 1.01% [signal inhibitor]
COc1ccc(CNC(=O)C2CCCN(S(=O)(=O)c3cc(C)ccc3OC)C2)cc1 (centres undefined) |  | inconclusive: 3.24% [signal inhibitor]
O=C(NCCc1ccc(Cl)cc1)c1ccc2c(c1)N(Cc1ccc(F)cc1Cl)C(=O)CS2 |  | inconclusive: 1.03% [signal inhibitor]
COc1ccc(-c2[nH]c(-c3ccccc3)nc2SCC(=O)Nc2ccc3c(c2)OCO3)cc1 |  | inconclusive: 4.95% [signal inhibitor]
O=c1cc(-c2ccccc2)oc2cc(O)c(O)c(O)c12 |  | inactive
O=C(Nc1ccc(F)cc1)c1cccc(N2CCCS2(=O)=O)c1 |  | inconclusive: 2.98% [signal inhibitor]
